The list shows a part of the results. Sequences were assembled here from the parent chain. Inactive controls read about 0.05.
B1: TEV protease; numbered along this chain (parent)
chain: MGESLFKGPRDYNPISSSICHLTNESDGHTTSLYGIGFGPFIITNKHLFRRNNGTLVVQSLHGVFKVKDTTTLQQHLVDGRDMIIIRMPKDFPPFPQKLKFREPQREERICLVTTNFQTKSMSSMVSDTSCTFPSGDGIFWKHWIQTKDGQCGSPLVSTRDGFIVGIHSASNFTNTNNYFTSVPKNFMELLTNQEAQQWVSGWRLNADSVLWGGHKVFMVKPEEPFQPVKEATQL

Variants of: B1
Assay: raw area under fraction-flipped curve 0-4 h after induction (AUC4h, not background-subtracted), DNA-recorder readout of cleavage of the substrate (dimensionless); higher = more cleavage of the substrate by the protease variant
Conditions: temperature: 34 °C; time window: 0-4 h after rhamnose induction
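Note: Bxb1 expression induced with 0.2% (w/v) L-rhamnose at OD600 near 0.5, cultures sampled hourly, flipped fraction per protease–substrate barcode pair counted by paired-end Illumina sequencing.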

| Variant | area with substrate ENCYFQS | area with substrate ENDYFQS | area with substrate ENEYFQS | area with substrate ENFYFQS | area with substrate ENGYFQS | area with substrate ENHYFQS | area with substrate ENIYFQS | area with substrate ENQYFQS | area with substrate ENRYFQS | area with substrate ENSYFQS |
| --- | --- | --- | --- | --- | --- | --- | --- | --- | --- | --- |
| MGESLFKGPRDYNPISSSICHLTNESDGHTTSLYGIGSGPFIITNKHLFRRNNGTLVVQSLHGVFKVKDTTTLQQHLVDGRDMIIIRMPKDFPPFPQKLKFREPQREERICLVTTNFQTKSMSSMVSDTSCTFPSGDGIFWKHWIQTKDGQCGSPLVSTRDGFIVGIHSASNFTNTNNYFTSVPKNFMELLTNQEAQQWVSGWRLNADSVLWGGHKVFMVKPEEPFQPVKEATQL [F38S] | 0.0645 | 0.0617 | 0.0512 | 0.0547 | 0.043 | 0.0528 | 0.08 | 0.0566 | 0.0634 | 0.0561 |
| MGESLFFGPRDYNPISSSICHLTNESDGHTTSLYGIGFGPFIITNKHLFRRNNGTLVVQSLHGVFKVKDTTTLQQHLVDGRDMIIIRMPKDFPPFPQKLKFREPQREERICLVTTNFQTKSMSSMVSDTSCTFPSGDGIFWKHWIQTKDGQCGSPLVSTRDGFIVGIHSASNFTNTNNYFTSVPKNFMELLTNQEAQQWVSGWRLNADSVLWGGHKVFMVKPEEPFQPVKEATQL [K7F] | 0.0709 | – | – | – | 0.069 | – | – | – | 0.0614 | 0.0747 |
| MGESLFKGPRDYNPISSSICHLTNESDGHTTSLYGIGFGPFIITNKHLFRRNNGTLVVQSLHGVFKVKDTTTLQQHLVDGRDMIIIRMPKDFPPFPQKLKFREPQREERICLVTTNFQNKSMSSMVSDTSCTFPSGDGIFWKHWIQTKDGQCGSPLVSTRDGFIVGIHSASNFTNTNNYFTSVPKNFMELLTNQEAQQWVSGWRLNADSVLWGGHKVFMVKPEEPFQPVKEATQL [T119N] | 0.0691 | 0.0449 | 0.0671 | – | – | 0.0698 | 0.124 | 0.0391 | 0.0483 | 0.0592 |
| MGESLFKGPRDYNPISSSICHLTNESDGHTTSLYGIGFGPFIITNKHLFRRNNGTLVVQSLHGVFKVKDTTTLQQHLVDGRDMIIIRMPKDFPPFPQKLKFREPQREERICLVTTNFQTKSMSSMVSDTSCTFPSGDGIFWKHWIQTKDGQCGSPLVSTRDGFIVGIHSASNFTNTNNYFTSVPKNFQELLTNQEAQQWVSGWRLNADSVLWGGHKVFMVKPEEPFQPVKEATQL [M188Q] | 0.0555 | 0.0621 | 0.0625 | 0.073 | – | 0.0646 | 0.122 | 0.0585 | – | – |
| MGESLFKGPRDYNPISSSICHLTNESDGHTTSLYGIGFGPFIITNKHLFRRNNGTLVVQSLHGVFKVKDTTTLQQHLVDGRDMIIIRMPKDFPPFPQKLKFREPQREERICLVTTNFQTKSMSSMVSDTSCTFPSGDGIFWKHWIQTKDGQCGSPLVSTRDGFIVGIHSASNFTNTNNYFTSVPKNFMELLTNQEAQQWVSGWRLNADSVLYGGHKVFMVKPEEPFQPVKEATQL [W212Y] | 0.076 | – | – | 0.0642 | – | – | – | – | – | 0.065 |
| MGESLFKGPRDYNPISSSICHLTNESDGHTTSLYGIGFGPFIITNKHLFRRNNGTLVVQSLHGVFKVKDTTTLQQHLVDGRDMIIIRMPKDFPPFPQKLKFREPQREERICLVTTNFQTKSMSSMVSDTSATFPSGDGIFWKHWIQTKDGQCGSPLVSTRDGFIVGIHSASNFTNTNNYFTSVPKNFMELLTNQEAQQWVSGWRLNADSVLWGGHKVFMVKPEEPFQPVKEATQL [C131A] | 0.0629 | – | – | 0.0647 | – | – | – | – | – | 0.0678 |
| MGESLFKGPRDYNPISSSICHLTNESDGHTTSLYGIGFGPFIITNKHLFRRNNGTLVVQSLHGVFKVKDTTTLQQHLVDGRDMIIIRMPKDFPPFPQKLKFREPQREERICLVTTNFQTKSMSSMVSDTSCTFPSGDGIFWKHWIQTKDGQCGSPLVSTRDGFIVGIHSASNFTNTNNYFTSVPKNFMELLTNQECQQWVSGWRLNADSVLWGGHKVFMVKPEEPFQPVKEATQL [A196C] | 0.0618 | – | – | – | – | – | – | 0.0623 | – | – |
| MGESLFKGPRDYNPISSSICHLTNESDGHTTSLYGIGFGPFIITNKHLFRRNNGTLVVQSLHGVFKVKDTTTLQQHLVDGRDMIIIRMPKDFPPFPQKLKFREPQREERICLVTTNFQTKSMSSMVSDTSCTFPSGDGIFWKHWIQTKDGQCGSPLVSTRDGFIVGIHSASNFTNTNNYFTSVPKNFMELLTNQEAQQWVSGWRLNADSILWGGHKVFMVKPEEPFQPVKEATQL [V210I] | 0.0626 | 0.0643 | – | – | – | – | – | – | – | 0.0591 |
| MGESLFKGPRDYNPISSSICHLTNESDGHTTSLYGIGFGPFIITNKHLFRRNNGTLVVQSLHGVFKVKDTTTLQQHLVDGRDMIIHRMPKDFPPFPQKLKFREPQREERICLVTTNFQTKSMSSMVSDTSCTFPSGDGIFWKHWIQTKDGQCGSPLVSTRDGFIVGIHSASNFTNTNNYFTSVPKNFMELLTNQEAQQWVSGWRLNADSVLWGGHKVFMVKPEEPFQPVKEATQL [I86H] | 0.049 | 0.0428 | 0.0342 | – | – | – | 0.0326 | 0.0114 | – | 0.0376 |
| MGESLFKGPRDYNPISSSICHLTNESDGHTTSLYGIGFGPFIITNKHLFRRNNGTLVVQSLHGVFKVKDTTTLQQHLVDGRDMIIIRMPKDFPPFPQKLKMREPQREERICLVTTNFQTKSMSSMVSDTSCTFPSGDGIFWKHWIQTKDGQCGSPLVSTRDGFIVGIHSASNFTNTNNYFTSVPKNFMELLTNQEAQQWVSGWRLNADSVLWGGHKVFMVKPEEPFQPVKEATQL [F101M] | 0.0607 | 0.0586 | 0.0569 | 0.0388 | – | – | 0.0878 | 0.0597 | 0.0505 | 0.0714 |

Same assay, conditions: temperature: 34 °C; time window: 0-4 h after rhamnose induction

| Variant | area with substrate ENTYFQS | area with substrate ENVYFQS | area with substrate ENWYFQS | area with substrate ENYYFQS | area with substrate ENKYFQS | area with substrate ENNYFQS | area with substrate ENMYFQS | area with substrate ENPYFQS |
| --- | --- | --- | --- | --- | --- | --- | --- | --- |
| MGESLFKGPRDYNPISSSICHLTNESDGHTTSLYGIGSGPFIITNKHLFRRNNGTLVVQSLHGVFKVKDTTTLQQHLVDGRDMIIIRMPKDFPPFPQKLKFREPQREERICLVTTNFQTKSMSSMVSDTSCTFPSGDGIFWKHWIQTKDGQCGSPLVSTRDGFIVGIHSASNFTNTNNYFTSVPKNFMELLTNQEAQQWVSGWRLNADSVLWGGHKVFMVKPEEPFQPVKEATQL [F38S] | 0.0534 | 0.0647 | 0.0367 | 0.0501 | – | – | – | – |
| MGESLFFGPRDYNPISSSICHLTNESDGHTTSLYGIGFGPFIITNKHLFRRNNGTLVVQSLHGVFKVKDTTTLQQHLVDGRDMIIIRMPKDFPPFPQKLKFREPQREERICLVTTNFQTKSMSSMVSDTSCTFPSGDGIFWKHWIQTKDGQCGSPLVSTRDGFIVGIHSASNFTNTNNYFTSVPKNFMELLTNQEAQQWVSGWRLNADSVLWGGHKVFMVKPEEPFQPVKEATQL [K7F] | – | 0.0613 | – | – | 0.0745 | 0.0622 | – | – |
| MGESLFKGPRDYNPISSSICHLTNESDGHTTSLYGIGFGPFIITNKHLFRRNNGTLVVQSLHGVFKVKDTTTLQQHLVDGRDMIIIRMPKDFPPFPQKLKFREPQREERICLVTTNFQNKSMSSMVSDTSCTFPSGDGIFWKHWIQTKDGQCGSPLVSTRDGFIVGIHSASNFTNTNNYFTSVPKNFMELLTNQEAQQWVSGWRLNADSVLWGGHKVFMVKPEEPFQPVKEATQL [T119N] | – | 0.0773 | 0.0026 | – | – | 0.0491 | – | – |
| MGESLFKGPRDYNPISSSICHLTNESDGHTTSLYGIGFGPFIITNKHLFRRNNGTLVVQSLHGVFKVKDTTTLQQHLVDGRDMIIIRMPKDFPPFPQKLKFREPQREERICLVTTNFQTKSMSSMVSDTSCTFPSGDGIFWKHWIQTKDGQCGSPLVSTRDGFIVGIHSASNFTNTNNYFTSVPKNFQELLTNQEAQQWVSGWRLNADSVLWGGHKVFMVKPEEPFQPVKEATQL [M188Q] | – | 0.0698 | – | 0.0522 | 0.055 | 0.064 | 0.0825 | – |
| MGESLFKGPRDYNPISSSICHLTNESDGHTTSLYGIGFGPFIITNKHLFRRNNGTLVVQSLHGVFKVKDTTTLQQHLVDGRDMIIIRMPKDFPPFPQKLKFREPQREERICLVTTNFQTKSMSSMVSDTSCTFPSGDGIFWKHWIQTKDGQCGSPLVSTRDGFIVGIHSASNFTNTNNYFTSVPKNFMELLTNQEAQQWVSGWRLNADSVLYGGHKVFMVKPEEPFQPVKEATQL [W212Y] | – | – | – | – | – | – | – | 0.0605 |
| MGESLFKGPRDYNPISSSICHLTNESDGHTTSLYGIGFGPFIITNKHLFRRNNGTLVVQSLHGVFKVKDTTTLQQHLVDGRDMIIIRMPKDFPPFPQKLKFREPQREERICLVTTNFQTKSMSSMVSDTSCTFPSGDGIFWKHWIQTKDGQCGSPLVSTRDGFIVGIHSASNFTNTNNYFTSVPKNFMELLTNQECQQWVSGWRLNADSVLWGGHKVFMVKPEEPFQPVKEATQL [A196C] | – | – | – | – | – | – | – | 0.0529 |
| MGESLFKGPRDYNPISSSICHLTNESDGHTTSLYGIGFGPFIITNKHLFRRNNGTLVVQSLHGVFKVKDTTTLQQHLVDGRDMIIIRMPKDFPPFPQKLKFREPQREERICLVTTNFQTKSMSSMVSDTSCTFPSGDGIFWKHWIQTKDGQCGSPLVSTRDGFIVGIHSASNFTNTNNYFTSVPKNFMELLTNQEAQQWVSGWRLNADSILWGGHKVFMVKPEEPFQPVKEATQL [V210I] | 0.0727 | 0.0718 | – | – | – | – | 0.0689 | – |
| MGESLFKGPRDYNPISSSICHLTNESDGHTTSLYGIGFGPFIITNKHLFRRNNGTLVVQSLHGVFKVKDTTTLQQHLVDGRDMIIHRMPKDFPPFPQKLKFREPQREERICLVTTNFQTKSMSSMVSDTSCTFPSGDGIFWKHWIQTKDGQCGSPLVSTRDGFIVGIHSASNFTNTNNYFTSVPKNFMELLTNQEAQQWVSGWRLNADSVLWGGHKVFMVKPEEPFQPVKEATQL [I86H] | 0.034 | 0.0431 | – | – | – | – | 0.043 | – |
| MGESLFKGPRDYNPISSSICHLTNESDGHTTSLYGIGFGPFIITNKHLFRRNNGTLVVQSLHGVFKVKDTTTLQQHLVDGRDMIIIRMPKDFPPFPQKLKMREPQREERICLVTTNFQTKSMSSMVSDTSCTFPSGDGIFWKHWIQTKDGQCGSPLVSTRDGFIVGIHSASNFTNTNNYFTSVPKNFMELLTNQEAQQWVSGWRLNADSVLWGGHKVFMVKPEEPFQPVKEATQL [F101M] | 0.0766 | 0.0573 | – | – | 0.0435 | 0.0523 | 0.0678 | – |

Reference: the supplement of paper PMC12217912
